# Reference: the supplement of paper PMC8728848
# This is one part of the list.
# B1: Epa7 (Candida glabrata), Q6DTM6_CANGB (protein)
# chain: MGSSHHHHHHSSGLVPRGSHMKDDYSSFLSNNNLGWTDPTEFPLGCSPNVTTPKNGLSMELYSYDLRKNGSYPCWDAAYLDPNYPRTGYKSHRLLAKVDGVTGNINFYYHATKGCTPEIDHLPASYNYPKPLTMTNFTMLLYGYFKPKVTGYHTFTISADDLLFVNFGAGNAFDCCKRESSADDFGNYQAYAVWGSQTAKDDLTVHLDAGLYYPIRIFFNNREYDAELSLTLKTESDSNPVIDFSDYFYSFDDTKDGCPGLVSYDTS
# How the values were obtained:
# Assay in all cases: glycan array binding signal (z-score within array); higher = stronger binding
# Conditions in all cases: glycan notation: IUPAC condensed, linker removed
# [1] = target: Gal(b1-4)GlcNAc(b1-2)[Gal(b1-4)GlcNAc(b1-6)]Man(a1-6)[GlcNAc(b1-4)][Gal(b1-4)GlcNAc(b1-2)Man(a1-3)]Man(b1-4)GlcNAc(b1-4)GlcNAc
# Outline: (§1)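 From the Consortium for Functional Glycomics database, 3228 arrays were curated, keeping only those whose protein sequence was available. Binding is given as a within-array Z-score averaged across arrays sharing a protein sequence and across linkers. Negative Z-scores can be read as non-binding.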
# [2] = target: Gal(b1-4)GlcNAc(b1-2)[Gal(b1-4)GlcNAc(b1-6)]Man(a1-6)[GlcNAc(b1-4)][Gal(b1-4)GlcNAc(b1-2)[Gal(b1-4)GlcNAc(b1-4)]Man(a1-3)]Man(b1-4)GlcNAc(b1-4)[Fuc(a1-6)]GlcNAc
# Outline: as §1
# [3] = target: Gal(b1-4)GlcNAc(b1-3)Gal(b1-3)GalNAc
# Outline: as §1
# [4] = target: Gal(b1-4)GlcNAc(b1-3)Gal(b1-3)GlcNAc
# Outline: as §1
# [5] = target: Gal(b1-4)GlcNAc(b1-3)Gal(b1-4)Glc
# Outline: as §1
# [6] = target: Gal(b1-4)GlcNAc(b1-3)Gal(b1-4)GlcNAc
# Outline: as §1
# [7] = target: Gal(b1-4)GlcNAc(b1-3)Gal(b1-4)GlcNAc(b1-2)Man(a1-3)[Gal(b1-4)GlcNAc(b1-3)Gal(b1-4)GlcNAc(b1-2)Man(a1-6)]Man(b1-4)GlcNAc(b1-4)GlcNAc
# Outline: as §1
# [8] = target: Gal(b1-4)GlcNAc(b1-3)Gal(b1-4)GlcNAc(b1-2)Man(a1-3)[Gal(b1-4)GlcNAc(b1-3)Gal(b1-4)GlcNAc(b1-2)Man(a1-6)]Man(b1-4)GlcNAc(b1-4)[Fuc(a1-6)]GlcNAc
# Outline: as §1
# [9] = target: Gal(b1-4)GlcNAc(b1-3)Gal(b1-4)GlcNAc(b1-2)[Gal(b1-4)GlcNAc(b1-3)Gal(b1-4)GlcNAc(b1-6)]Man(a1-6)[Gal(b1-4)GlcNAc(b1-3)Gal(b1-4)GlcNAc(b1-2)Man(a1-3)]Man(b1-4)GlcNAc(b1-4)GlcNAc
# Outline: as §1
# [10] = target: Gal(b1-4)GlcNAc(b1-3)Gal(b1-4)GlcNAc(b1-2)[Gal(b1-4)GlcNAc(b1-3)Gal(b1-4)GlcNAc(b1-6)]Man(a1-6)[Gal(b1-4)GlcNAc(b1-3)Gal(b1-4)GlcNAc(b1-2)Man(a1-3)]Man(b1-4)GlcNAc(b1-4)[Fuc(a1-6)]GlcNAc
# Outline: as §1
# [11] = target: Gal(b1-4)GlcNAc(b1-3)Gal(b1-4)GlcNAc(b1-3)Gal(b1-4)GlcNAc
# Outline: as §1
# [12] = target: Gal(b1-4)GlcNAc(b1-3)Gal(b1-4)GlcNAc(b1-3)Gal(b1-4)GlcNAc(b1-2)Man(a1-3)[Gal(b1-4)GlcNAc(b1-3)Gal(b1-4)GlcNAc(b1-3)Gal(b1-4)GlcNAc(b1-2)Man(a1-6)]Man(b1-4)GlcNAc(b1-4)GlcNAc
# Outline: as §1
# [13] = target: Gal(b1-4)GlcNAc(b1-3)Gal(b1-4)GlcNAc(b1-3)Gal(b1-4)GlcNAc(b1-2)Man(a1-3)[Gal(b1-4)GlcNAc(b1-3)Gal(b1-4)GlcNAc(b1-3)Gal(b1-4)GlcNAc(b1-2)Man(a1-6)]Man(b1-4)GlcNAc(b1-4)[Fuc(a1-6)]GlcNAc
# Outline: as §1
# [14] = target: Gal(b1-4)GlcNAc(b1-3)Gal(b1-4)GlcNAc(b1-3)Gal(b1-4)GlcNAc(b1-2)[Gal(b1-4)GlcNAc(b1-3)Gal(b1-4)GlcNAc(b1-3)Gal(b1-4)GlcNAc(b1-6)]Man(a1-6)[Gal(b1-4)GlcNAc(b1-3)Gal(b1-4)GlcNAc(b1-3)Gal(b1-4)GlcNAc(b1-2)Man(a1-3)]Man(b1-4)GlcNAc(b1-4)[Fuc(a1-6)]GlcNAc
# Outline: as §1
# [15] = target: Gal(b1-4)GlcNAc(b1-3)Gal(b1-4)GlcNAc(b1-3)Gal(b1-4)GlcNAc(b1-3)Gal(b1-4)GlcNAc(b1-2)Man(a1-3)[Gal(b1-4)GlcNAc(b1-3)Gal(b1-4)GlcNAc(b1-3)Gal(b1-4)GlcNAc(b1-3)Gal(b1-4)GlcNAc(b1-2)Man(a1-6)]Man(b1-4)GlcNAc(b1-4)GlcNAc
# Outline: as §1
# [16] = target: Gal(b1-4)GlcNAc(b1-3)Gal(b1-4)GlcNAc(b1-3)Gal(b1-4)GlcNAc(b1-3)Gal(b1-4)GlcNAc(b1-2)Man(a1-3)[Gal(b1-4)GlcNAc(b1-3)Gal(b1-4)GlcNAc(b1-3)Gal(b1-4)GlcNAc(b1-3)Gal(b1-4)GlcNAc(b1-2)Man(a1-6)]Man(b1-4)GlcNAc(b1-4)[Fuc(a1-6)]GlcNAc
# Outline: as §1
# [17] = target: Gal(b1-4)GlcNAc(b1-3)Gal(b1-4)GlcNAc(b1-3)Gal(b1-4)GlcNAc(b1-3)Gal(b1-4)GlcNAc(b1-2)[Gal(b1-4)GlcNAc(b1-3)Gal(b1-4)GlcNAc(b1-3)Gal(b1-4)GlcNAc(b1-3)Gal(b1-4)GlcNAc(b1-6)]Man(a1-6)[Gal(b1-4)GlcNAc(b1-3)Gal(b1-4)GlcNAc(b1-3)Gal(b1-4)GlcNAc(b1-3)Gal(b1-4)GlcNAc(b1-2)Man(a1-3)]Man(b1-4)GlcNAc(b1-4)[Fuc(a1-6)]GlcNAc
# Outline: as §1
# [18] = target: Gal(b1-4)GlcNAc(b1-3)Gal(b1-4)GlcNAc(b1-3)Gal(b1-4)GlcNAc(b1-3)Gal(b1-4)GlcNAc(b1-3)Gal(b1-4)GlcNAc(b1-2)Man(a1-3)[Gal(b1-4)GlcNAc(b1-3)Gal(b1-4)GlcNAc(b1-3)Gal(b1-4)GlcNAc(b1-3)Gal(b1-4)GlcNAc(b1-3)Gal(b1-4)GlcNAc(b1-2)Man(a1-6)]Man(b1-4)GlcNAc(b1-4)GlcNAc
# Outline: as §1
# [19] = target: Gal(b1-4)GlcNAc(b1-3)Gal(b1-4)GlcNAc(b1-3)Gal(b1-4)GlcNAc(b1-3)Gal(b1-4)GlcNAc(b1-3)Gal(b1-4)GlcNAc(b1-2)Man(a1-3)[Gal(b1-4)GlcNAc(b1-3)Gal(b1-4)GlcNAc(b1-3)Gal(b1-4)GlcNAc(b1-3)Gal(b1-4)GlcNAc(b1-3)Gal(b1-4)GlcNAc(b1-2)Man(a1-6)]Man(b1-4)GlcNAc(b1-4)[Fuc(a1-6)]GlcNAc
# Outline: as §1
# [20] = target: Gal(b1-4)GlcNAc(b1-3)Gal(b1-4)GlcNAc(b1-3)Gal(b1-4)GlcNAc(b1-3)Gal(b1-4)GlcNAc(b1-3)Gal(b1-4)GlcNAc(b1-2)[Gal(b1-4)GlcNAc(b1-3)Gal(b1-4)GlcNAc(b1-3)Gal(b1-4)GlcNAc(b1-3)Gal(b1-4)GlcNAc(b1-3)Gal(b1-4)GlcNAc(b1-6)]Man(a1-6)[Gal(b1-4)GlcNAc(b1-3)Gal(b1-4)GlcNAc(b1-3)Gal(b1-4)GlcNAc(b1-3)Gal(b1-4)GlcNAc(b1-3)Gal(b1-4)GlcNAc(b1-2)Man(a1-3)]Man(b1-4)GlcNAc(b1-4)[Fuc(a1-6)]GlcNAc
# Outline: as §1
# [21] = target: Gal(b1-4)GlcNAc(b1-3)Gal(b1-4)GlcNAc(b1-3)Gal(b1-4)GlcNAc(b1-3)Gal(b1-4)GlcNAc(b1-3)Gal(b1-4)GlcNAc(b1-3)Gal(b1-4)GlcNAc(b1-2)Man(a1-3)[Gal(b1-4)GlcNAc(b1-3)Gal(b1-4)GlcNAc(b1-3)Gal(b1-4)GlcNAc(b1-3)Gal(b1-4)GlcNAc(b1-3)Gal(b1-4)GlcNAc(b1-3)Gal(b1-4)GlcNAc(b1-2)Man(a1-6)]Man(b1-4)GlcNAc(b1-4)GlcNAc
# Outline: as §1
# [22] = target: Gal(b1-4)GlcNAc(b1-3)Gal(b1-4)GlcNAc(b1-3)GalNAc
# Outline: as §1
# [23] = target: Gal(b1-4)GlcNAc(b1-3)Gal(b1-4)GlcNAc(b1-3)[Gal(b1-4)GlcNAc(b1-3)Gal(b1-4)GlcNAc(b1-6)]GalNAc
# Outline: as §1
# [24] = target: Gal(b1-4)GlcNAc(b1-3)Gal(b1-4)GlcNAc(b1-6)[Gal(b1-3)]GalNAc
# Outline: as §1
# [25] = target: Gal(b1-4)GlcNAc(b1-3)Gal(b1-4)[Fuc(a1-3)]GlcNAc(b1-3)Gal(b1-4)[Fuc(a1-3)]GlcNAc
# Outline: as §1
# [26] = target: Gal(b1-4)GlcNAc(b1-3)GalNAc
# Outline: as §1
# [27] = target: Gal(b1-4)GlcNAc(b1-3)[Fuc(a1-3)GlcNAc(b1-6)]Gal(b1-4)Glc
# Outline: as §1
# [28] = target: Gal(b1-4)GlcNAc(b1-3)[Gal(b1-4)GlcNAc(b1-6)]Gal(b1-4)GlcNAc
# Outline: as §1
# [29] = target: Gal(b1-4)GlcNAc(b1-3)[Gal(b1-4)GlcNAc(b1-6)]GalNAc
# Outline: as §1
# [30] = target: Gal(b1-4)GlcNAc(b1-3)[GlcNAc(b1-6)]Gal(b1-4)GlcNAc
# Outline: as §1
# [31] = target: Gal(b1-4)GlcNAc(b1-6)Gal(b1-4)GlcNAc
# Outline: as §1
# [32] = target: Gal(b1-4)GlcNAc(b1-6)GalNAc
# Outline: as §1
# [33] = target: Gal(b1-4)GlcNAc(b1-6)[Gal(b1-3)]GalNAc
# Outline: as §1
# [34] = target: Gal(b1-4)GlcNAc(b1-6)[Gal(b1-3)]GlcNAc
# Outline: as §1
# [35] = target: Gal(b1-4)GlcNAc(b1-6)[Gal(b1-4)GlcNAc(b1-3)]GalNAc
# Outline: as §1
# Gal(b1-4)GlcNAc6P = target: Gal(b1-4)GlcNAc6P
# Outline: as §1
# Gal(b1-6)Gal = target: Gal(b1-6)Gal
# Outline: as §1
binder,measurement,setting,value
B1,glycan array binding signal (z-score),[1],-0.046
same,glycan array binding signal (z-score),[2],0.58
same,glycan array binding signal (z-score),[3],-0.184
same,glycan array binding signal (z-score),[4],-0.246
same,glycan array binding signal (z-score),[5],-0.13
same,glycan array binding signal (z-score),[6],0.699
same,glycan array binding signal (z-score),[7],-0.013
same,glycan array binding signal (z-score),[8],0.1
same,glycan array binding signal (z-score),[9],0.038
same,glycan array binding signal (z-score),[10],0.216
same,glycan array binding signal (z-score),[11],-0.116
same,glycan array binding signal (z-score),[12],0.009
same,glycan array binding signal (z-score),[13],0.095
same,glycan array binding signal (z-score),[14],0.191
same,glycan array binding signal (z-score),[15],-0.002
same,glycan array binding signal (z-score),[16],0.076
same,glycan array binding signal (z-score),[17],0.138
same,glycan array binding signal (z-score),[18],0.098
same,glycan array binding signal (z-score),[19],0.02
same,glycan array binding signal (z-score),[20],0.068
same,glycan array binding signal (z-score),[21],-0.012
same,glycan array binding signal (z-score),[22],-0.082
same,glycan array binding signal (z-score),[23],-0.077
same,glycan array binding signal (z-score),[24],1.37
same,glycan array binding signal (z-score),[25],-0.127
same,glycan array binding signal (z-score),[26],-0.212
same,glycan array binding signal (z-score),[27],-0.166
same,glycan array binding signal (z-score),[28],0.111
same,glycan array binding signal (z-score),[29],5.02
same,glycan array binding signal (z-score),[30],-0.135
same,glycan array binding signal (z-score),[31],0.23
same,glycan array binding signal (z-score),[32],0.622
same,glycan array binding signal (z-score),[33],2.16
same,glycan array binding signal (z-score),[34],5.53
same,glycan array binding signal (z-score),[35],0.32
same,glycan array binding signal (z-score),Gal(b1-4)GlcNAc6P,-0.236
same,glycan array binding signal (z-score),Gal(b1-6)Gal,-0.036
